In PMC7089965 (Frontiers in Microbiology, 2020):

Test system: M. tuberculosis H37Rv
Conditions: broth microdilution, 10^6 CFU/mL, 7 days, 37°C, OD595 and visual

SMILES	MIC H37Rv [mg/L]
CCCCCCNCC(=O)N(CC(=O)N(CCCCN)CC(=O)N(CCCCCC)CC(=O)N(CC(=O)N(CCCCN)CC(N)=O)[C@@H](C)c1ccccc1)[C@@H](C)c1ccccc1 [BM 2] (H-[NHexGly][Nspe][Nlys][NHexGly][Nspe][Nlys]-NH2)	8 (≈ 9.11 µM)
CCCCCCNCC(=O)N(CC(=O)N(CCCCN)CC(=O)N(CCCCCC)CC(=O)N(CC(=O)N(CCCCN)CC(=O)N(CCCCCC)CC(=O)N(CC(=O)N(CCCCN)CC(N)=O)[C@@H](C)c1ccccc1)[C@@H](C)c1ccccc1)[C@@H](C)c1ccccc1 [BM 3] (H-[NHexGly][Nspe][Nlys][NHexGly][Nspe][Nlys][NHexGly][Nspe][Nlys]-NH2)	16 (≈ 12.2 µM)

In brackets after ≈: the same amount, converted by molar mass. Where a SMILES comes first, the peptide text is derived from it. [ ]: non-standard residue; d: D form. Nspe = C[C@H](NCC(=O)O)c1ccccc1; NHexGly = CCCCCCNCC(=O)O; Nlys = NCCCCNCC(=O)O
